Measured values: patent US20250066451A1 (SWEDISH ORPHAN BIOVITRUM AB PUBL, published 2025)

T1: human IL-1R-I (human, UniProt P14778 18-332, limits assumed)
T1 construct: bought recombinant protein; also called hIL-1R-I; hIL-1RI
T1 sequence (looked up): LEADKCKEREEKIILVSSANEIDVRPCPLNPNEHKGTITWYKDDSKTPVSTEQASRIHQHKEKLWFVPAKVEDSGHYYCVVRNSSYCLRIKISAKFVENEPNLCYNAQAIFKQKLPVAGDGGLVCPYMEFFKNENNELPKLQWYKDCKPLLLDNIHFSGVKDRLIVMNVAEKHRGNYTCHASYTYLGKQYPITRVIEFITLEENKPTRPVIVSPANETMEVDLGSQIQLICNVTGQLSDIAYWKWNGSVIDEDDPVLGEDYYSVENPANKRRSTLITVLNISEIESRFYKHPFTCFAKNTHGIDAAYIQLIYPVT


Target: T1, human IL-1R-I
Test: SPR screening; Z-ABD captured on anti-ABD, 100 nM hIL-1R-I injected

Kd [nM] | Binder
2.9 | Z18830 (Z-ABD) (designed binder) AQHDEALEVDAKYAKEVEEIQMEIFFLPNLTRRQYTAFIRKLLDDPSQSSELLSEAKKLNDSQAPKVDYVLAEAKVLANRELDKYGVSDYYKNLINNAKTVEGVKALIDEILAALPYVPG
2.5 | Z18841 (Z-ABD) (designed binder) AQHDEALEVDAKYAKEVEEIQMEIFGLPNLTRKQYTAFIRKLLDDPSQSSELLSEAKKLNDSQAPKVDYVLAEAKVLANRELDKYGVSDYYKNLINNAKTVEGVKALIDEILAALPYVPG
2.4 | Z18863 (Z-ABD) (designed binder) AQHDEALEVDAKYAKEVEEVQMEIFGLPNLTRRQYTAFIRKLLDDPSQSSELLSEAKKLNDSQAPKVDYVLAEAKVLANRELDKYGVSDYYKNLINNAKTVEGVKALIDEILAALPYVPG
6.2 | Z18860 (Z-ABD) (designed binder) AQHDEALEVDAKYAKETEEIQMEIFLLPNLTRKQYTAFIRKLFDDPSQSSELLSEAKKLNDSQAPKVDYVLAEAKVLANRELDKYGVSDYYKNLINNAKTVEGVKALIDEILAALPYVPG
2.6 | Z18850 (Z-ABD) (designed binder) AQHDEALEVDAKYAKEIEEIQMEIFALPNLTRRQYTAFIRKLLDDPSQSSELLSEAKKLNDSQAPKVDYVLAEAKVLANRELDKYGVSDYYKNLINNAKTVEGVKALIDEILAALPYVPG
2.7 | Z18875 (Z-ABD) (designed binder) AQHDEALEVDAKYAKEIEAIQMEIFHLPNLTRRQYTAFIRKLLDDPSQSSELLSEAKKLNDSQAPKVDYVLAEAKVLANRELDKYGVSDYYKNLINNAKTVEGVKALIDEILAALPYVPG
3.3 | Z18861 (Z-ABD) (designed binder) AQHDEALEVDAKYAKEVEEVQMEIFALPNLTRRQYTAFIRKLLDDPSQSSELLSEAKKLNDSQAPKVDYVLAEAKVLANRELDKYGVSDYYKNLINNAKTVEGVKALIDEILAALPYVPG
2.6 | Z18872 (Z-ABD) (designed binder) AQHDEALEVDAKYAKEIEAVQMEIFYLPNLTRRQYTAFIRKLLDDPSQSSELLSEAKKLNDSQAPKVDYVLAEAKVLANRELDKYGVSDYYKNLINNAKTVEGVKALIDEILAALPYVPG
2.9 | Z18836 (Z-ABD) (designed binder) AQHDEALEVDAKYAKEVEAIQMEIFGLPNLTRRQYTAFIRKLLDDPSQSSELLSEAKKLNDSQAPKVDYVLAEAKVLANRELDKYGVSDYYKNLINNAKTVEGVKALIDEILAALPYVPG
3.5 | Z18871 (Z-ABD) (designed binder) AQHDEALEVDAKYAKEVEEIQMEIFHLPNLTRKQYTAFIRKLFDDPSQSSELLSEAKKLNDSQAPKVDYVLAEAKVLANRELDKYGVSDYYKNLINNAKTVEGVKALIDEILAALPYVPG
3.1 | Z18839 (Z-ABD) (designed binder) AQHDEALEVDAKYAKEVEAVQMEIFALPNLTRKQYTAFIRKLLDDPSQSSELLSEAKKLNDSQAPKVDYVLAEAKVLANRELDKYGVSDYYKNLINNAKTVEGVKALIDEILAALPYVPG
3.1 | Z18843 (Z-ABD) (designed binder) AQHDEALEVDAKYAKEIEEIQMEIFYLPNLTRRQYTAFIRKLLDDPSQSSELLSEAKKLNDSQAPKVDYVLAEAKVLANRELDKYGVSDYYKNLINNAKTVEGVKALIDEILAALPYVPG
3.8 | Z18878 (Z-ABD) (designed binder) AQHDEALEVDAKYAKEVEEVQMEIFYLPNLTRKQYTAFIRKLLDDPSQSSELLSEAKKLNDSQAPKVDYVLAEAKVLANRELDKYGVSDYYKNLINNAKTVEGVKALIDEILAALPYVPG
3.7 | Z18876 (Z-ABD) (designed binder) AQHDEALEVDAKYAKEIEEIQMEIFYLPNLTRRQYVAFIRKLLDDPSQSSELLSEAKKLNDSQAPKVDYVLAEAKVLANRELDKYGVSDYYKNLINNAKTVEGVKALIDEILAALPYVPG
4 | Z18844 (Z-ABD) (designed binder) AQHDEALEVDAKYAKELEEIQMEIFSLPNLTRRQYTAFIRKLLDDPSQSSELLSEAKKLNDSQAPKVDYVLAEAKVLANRELDKYGVSDYYKNLINNAKTVEGVKALIDEILAALPYVPG
3.8 | Z18833 (Z-ABD) (designed binder) AQHDEALEVDAKYAKEVEEVQMEIFYLPNLTRRQYTAFIRKLLDDPSQSSELLSEAKKLNDSQAPKVDYVLAEAKVLANRELDKYGVSDYYKNLINNAKTVEGVKALIDEILAALPYVPG
3 | Z18847 (Z-ABD) (designed binder) AQHDEALEVDAKYAKETEEVQMEIFALPNLTRKQYTAFIRKLLDDPSQSSELLSEAKKLNDSQAPKVDYVLAEAKVLANRELDKYGVSDYYKNLINNAKTVEGVKALIDEILAALPYVPG

Kd [nM] | Binder
2.1 | Z18846 (Z-ABD) (designed binder) AQHDEALEVDAKYAKEIEEIQMEIFHLPNLTRRQYTAFIRKLLDDPSQSSELLSEAKKLNDSQAPKVDYVLAEAKVLANRELDKYGVSDYYKNLINNAKTVEGVKALIDEILAALPYVPG
1.6 | Z18832 (Z-ABD) (designed binder) AQHDEALEVDAKYAKEVEEIQMEIFHLPNLTRRQYTAFIRKLLDDPSQSSELLSEAKKLNDSQAPKVDYVLAEAKVLANRELDKYGVSDYYKNLINNAKTVEGVKALIDEILAALPYVPG
2.7 | Z18877 (Z-ABD) (designed binder) AQHDEALEVDAKYAKEVEEIQMEIFYLPNLTRKQYTAFIRKLLDDPSQSSELLSEAKKLNDSQAPKVDYVLAEAKVLANRELDKYGVSDYYKNLINNAKTVEGVKALIDEILAALPYVPG
2.7 | Z18866 (Z-ABD) (designed binder) AQHDEALEVDAKYAKEIEEIQMEIFHLPNLTRKQYTAFIRKLLDDPSQSSELLSEAKKLNDSQAPKVDYVLAEAKVLANRELDKYGVSDYYKNLINNAKTVEGVKALIDEILAALPYVPG
2.3 | Z18853 (Z-ABD) (designed binder) AQHDEALEVDAKYAKEIEEIQMEIFYLPNLTRRQYTAFIRKLFDDPSQSSELLSEAKKLNDSQAPKVDYVLAEAKVLANRELDKYGVSDYYKNLINNAKTVEGVKALIDEILAALPYVPG
3.3 | Z18838 (Z-ABD) (designed binder) AQHDEALEVDAKYAKEVEEIQMEIFHLPNLTRKQYTAFIRKLLDDPSQSSELLSEAKKLNDSQAPKVDYVLAEAKVLANRELDKYGVSDYYKNLINNAKTVEGVKALIDEILAALPYVPG
3 | Z18831 (Z-ABD) (designed binder) AQHDEALEVDAKYAKEIEEVQMEIFYLPNLTRRQYTAFIRKLLDDPSQSSELLSEAKKLNDSQAPKVDYVLAEAKVLANRELDKYGVSDYYKNLINNAKTVEGVKALIDEILAALPYVPG
3.1 | Z18873 (Z-ABD) (designed binder) AQHDEALEVDAKYAKELEEVQMEIFYLPNLTRRQYTAFIRKLLDDPSQSSELLSEAKKLNDSQAPKVDYVLAEAKVLANRELDKYGVSDYYKNLINNAKTVEGVKALIDEILAALPYVPG
2.3 | Z18874 (Z-ABD) (designed binder) AQHDEALEVDAKYAKELEAIQMEIFHLPNLTRRQYTAFIRKLLDDPSQSSELLSEAKKLNDSQAPKVDYVLAEAKVLANRELDKYGVSDYYKNLINNAKTVEGVKALIDEILAALPYVPG
3 | Z18870 (Z-ABD) (designed binder) AQHDEALEVDAKYAKEIEAIQMEIFGLPNLTRRQYTAFIRKLFDDPSQSSELLSEAKKLNDSQAPKVDYVLAEAKVLANRELDKYGVSDYYKNLINNAKTVEGVKALIDEILAALPYVPG
2.7 | Z18868 (Z-ABD) (designed binder) AQHDEALEVDAKYAKELEIVQMEIFHLPNLTRRQYTAFIRKLLDDPSQSSELLSEAKKLNDSQAPKVDYVLAEAKVLANRELDKYGVSDYYKNLINNAKTVEGVKALIDEILAALPYVPG
3.6 | Z18851 (Z-ABD) (designed binder) AQHDEALEVDAKYAKEIEQIQMEIFYLPNLTRRQYTAFIRKLLDDPSQSSELLSEAKKLNDSQAPKVDYVLAEAKVLANRELDKYGVSDYYKNLINNAKTVEGVKALIDEILAALPYVPG
2.9 | Z18856 (Z-ABD) (designed binder) AQHDEALEVDAKYAKELEEIQMEIFHLPNLTRRQYTAFIRKLLDDPSQSSELLSEAKKLNDSQAPKVDYVLAEAKVLANRELDKYGVSDYYKNLINNAKTVEGVKALIDEILAALPYVPG
2.4 | Z18834 (Z-ABD) (designed binder) AQHDEALEVDAKYAKEVEEIQMEIFGLPNLTRRQYTAFIRKLLDDPSQSSELLSEAKKLNDSQAPKVDYVLAEAKVLANRELDKYGVSDYYKNLINNAKTVEGVKALIDEILAALPYVPG
3 | Z18848 (Z-ABD) (designed binder) AQHDEALEVDAKYAKEIEEIQMEIFFLPNLTRKQYTAFIRKLLDDPSQSSELLSEAKKLNDSQAPKVDYVLAEAKVLANRELDKYGVSDYYKNLINNAKTVEGVKALIDEILAALPYVPG
3 | Z18849 (Z-ABD) (designed binder) AQHDEALEVDAKYAKEIEEVQMEIFYLPNLTRKQYTAFIRKLFDDPSQSSELLSEAKKLNDSQAPKVDYVLAEAKVLANRELDKYGVSDYYKNLINNAKTVEGVKALIDEILAALPYVPG
